Assay results from a collection of fitness landscapes (doi:10.1016/j.celrep.2020.107928).
In all, about 81,000 sequences were measured (“one-hybrid fitness for binding parS DNA”: median about -0.17, highest 2% from about 0.51 on). This is one part of the list.

B1: Caulobacter ParB omega fusion; a variant is named by its letters at X, in order, B8GW30 (parent)
chain: MESVVVGEPGMSEGRRGLGRGLSALLGEVDAAPAQAPGEQLGGSREAPIEILQRNPDQPRRTFREEDLEDLSNSIREKGVLQPILVRPSPDTAGEYQIVAGERAWRAAQRAGLKTVPIMVRELDDLAVLEIGIIENVQRADLNVLEEALSYKVLMEKFERTQENIAQTIGKSXSHVANXMRLLXLPDEVQSYLVSGELTAXHARAIAAAADPVALAKQIIEGGLSVRETEALARKAPNLSAGKSKGGRPPRVKDTDTQALESDLSSVLGLDVSIDHRGSTGTLTITYATLEQLDDLCNRLTRGI

Variants of: B1
Test: one-hybrid fitness for binding parS DNA (scaled: cognate 1, non-cognate 0); higher = stronger binding
Conditions: with parS DNA site
Procedure, shortened: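 Caulobacter ParB libraries with four specificity codons randomised were screened by bacterial one-hybrid selection in the E. coli USO strain, using a HIS3 reporter whose site lies 19 bp from the promoter. Selection ran for 48 hours at 37°C on M9 lacking histidine, with 0.1 mM IPTG and 5 mM 3-AT. Plasmids were Illumina-sequenced before and after selection, three replicate libraries were pooled, and variants with under 10 reads were dropped. Fitness is the log change in each variant's read ratio to wild type, rescaled against the cognate and non-cognate sites.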
For NCDR, the “one-hybrid fitness for binding parS DNA” value was ≤ 0.2. With AGLK the “one-hybrid fitness for binding parS DNA” value was ≤ 0.2. With KFVG the “one-hybrid fitness for binding parS DNA” value was ≤ 0.2. ERSM was tested, and the “one-hybrid fitness for binding parS DNA” value was ≤ 0.2. With RPLW the “one-hybrid fitness for binding parS DNA” value was ≤ 0.2. In the case of RWLV, the “one-hybrid fitness for binding parS DNA” value is reported as ≤ 0.2. In the case of YKYS, the “one-hybrid fitness for binding parS DNA” value is reported as ≤ 0.2. In the case of QSHD, the “one-hybrid fitness for binding parS DNA” value is reported as ≤ 0.2. In the case of MWAY, the “one-hybrid fitness for binding parS DNA” value is reported as ≤ 0.2. For TTAH, the “one-hybrid fitness for binding parS DNA” value was ≤ 0.2. KEGY was tested, and the “one-hybrid fitness for binding parS DNA” value was ≤ 0.2. For RSSW, the “one-hybrid fitness for binding parS DNA” value was 0.223. PSLD was tested, and the “one-hybrid fitness for binding parS DNA” value was ≤ 0.2. For LAEL, the “one-hybrid fitness for binding parS DNA” value was ≤ 0.2. For PMLG, the “one-hybrid fitness for binding parS DNA” value was ≤ 0.2. With QELD the “one-hybrid fitness for binding parS DNA” value was ≤ 0.2. For YNTM, the “one-hybrid fitness for binding parS DNA” value was ≤ 0.2. TTFD was tested, and the “one-hybrid fitness for binding parS DNA” value was ≤ 0.2. With SGSF the “one-hybrid fitness for binding parS DNA” value was ≤ 0.2. In the case of TQLK, the “one-hybrid fitness for binding parS DNA” value is reported as ≤ 0.2. For DDPC, the “one-hybrid fitness for binding parS DNA” value was ≤ 0.2. With VCPR the “one-hybrid fitness for binding parS DNA” value was ≤ 0.2. VCKR was tested, and the “one-hybrid fitness for binding parS DNA” value was ≤ 0.2. With LNGM the “one-hybrid fitness for binding parS DNA” value was ≤ 0.2. For SLNT, the “one-hybrid fitness for binding parS DNA” value was ≤ 0.2. PETG was tested, and the “one-hybrid fitness for binding parS DNA” value was ≤ 0.2. CARM was tested, and the “one-hybrid fitness for binding parS DNA” value was ≤ 0.2. For RGTY, the “one-hybrid fitness for binding parS DNA” value was 0.28. With WTPS the “one-hybrid fitness for binding parS DNA” value was ≤ 0.2. For DLDM, the “one-hybrid fitness for binding parS DNA” value was ≤ 0.2. RKRT was tested, and the “one-hybrid fitness for binding parS DNA” value was 0.658. For HGEV, the “one-hybrid fitness for binding parS DNA” value was ≤ 0.2. FRVC was tested, and the “one-hybrid fitness for binding parS DNA” value was ≤ 0.2. With TDRQ the “one-hybrid fitness for binding parS DNA” value was ≤ 0.2. In the case of HIIS, the “one-hybrid fitness for binding parS DNA” value is reported as ≤ 0.2. In the case of PYWA, the “one-hybrid fitness for binding parS DNA” value is reported as ≤ 0.2. For TCWW, the “one-hybrid fitness for binding parS DNA” value was 0.215. In the case of RRQQ, the “one-hybrid fitness for binding parS DNA” value is reported as ≤ 0.2. For NPFC, the “one-hybrid fitness for binding parS DNA” value was ≤ 0.2. In the case of TNFL, the “one-hybrid fitness for binding parS DNA” value is reported as ≤ 0.2. In the case of RQKL, the “one-hybrid fitness for binding parS DNA” value is reported as ≤ 0.2. GNKG was tested, and the “one-hybrid fitness for binding parS DNA” value was ≤ 0.2. In the case of EMGL, the “one-hybrid fitness for binding parS DNA” value is reported as ≤ 0.2. In the case of AHPS, the “one-hybrid fitness for binding parS DNA” value is reported as ≤ 0.2. For QRWC, the “one-hybrid fitness for binding parS DNA” value was ≤ 0.2. With QIAY the “one-hybrid fitness for binding parS DNA” value was ≤ 0.2. In the case of MLNT, the “one-hybrid fitness for binding parS DNA” value is reported as ≤ 0.2. For ADPA, the “one-hybrid fitness for binding parS DNA” value was ≤ 0.2. With QADC the “one-hybrid fitness for binding parS DNA” value was ≤ 0.2. LEEI was tested, and the “one-hybrid fitness for binding parS DNA” value was ≤ 0.2. SKWD was tested, and the “one-hybrid fitness for binding parS DNA” value was ≤ 0.2. For GSQA, the “one-hybrid fitness for binding parS DNA” value was ≤ 0.2. For WCSK, the “one-hybrid fitness for binding parS DNA” value was ≤ 0.2. For RPDR, the “one-hybrid fitness for binding parS DNA” value was ≤ 0.2. With TWCM the “one-hybrid fitness for binding parS DNA” value was ≤ 0.2. For RDQN, the “one-hybrid fitness for binding parS DNA” value was ≤ 0.2. With QSRP the “one-hybrid fitness for binding parS DNA” value was ≤ 0.2. In the case of RDKN, the “one-hybrid fitness for binding parS DNA” value is reported as ≤ 0.2. With RNWR the “one-hybrid fitness for binding parS DNA” value was ≤ 0.2. With KGKQ the “one-hybrid fitness for binding parS DNA” value was ≤ 0.2. For SSYA, the “one-hybrid fitness for binding parS DNA” value was ≤ 0.2. For PCFS, the “one-hybrid fitness for binding parS DNA” value was ≤ 0.2. In the case of VMGY, the “one-hybrid fitness for binding parS DNA” value is reported as ≤ 0.2. For EVSM, the “one-hybrid fitness for binding parS DNA” value was ≤ 0.2. For AYAK, the “one-hybrid fitness for binding parS DNA” value was ≤ 0.2. In the case of YFRG, the “one-hybrid fitness for binding parS DNA” value is reported as ≤ 0.2. For ADRF, the “one-hybrid fitness for binding parS DNA” value was ≤ 0.2. With TQCC the “one-hybrid fitness for binding parS DNA” value was ≤ 0.2. SPPY was tested, and the “one-hybrid fitness for binding parS DNA” value was ≤ 0.2. In the case of PMMN, the “one-hybrid fitness for binding parS DNA” value is reported as ≤ 0.2. In the case of MWYT, the “one-hybrid fitness for binding parS DNA” value is reported as ≤ 0.2. For AKAT, the “one-hybrid fitness for binding parS DNA” value was ≤ 0.2. KVTL was tested, and the “one-hybrid fitness for binding parS DNA” value was ≤ 0.2. For DSTC, the “one-hybrid fitness for binding parS DNA” value was ≤ 0.2. With QEYY the “one-hybrid fitness for binding parS DNA” value was ≤ 0.2. With RVWG the “one-hybrid fitness for binding parS DNA” value was 0.982. With AIPW the “one-hybrid fitness for binding parS DNA” value was ≤ 0.2. TAPP was tested, and the “one-hybrid fitness for binding parS DNA” value was ≤ 0.2. PWNY was tested, and the “one-hybrid fitness for binding parS DNA” value was ≤ 0.2. With TAPI the “one-hybrid fitness for binding parS DNA” value was ≤ 0.2. With PVMN the “one-hybrid fitness for binding parS DNA” value was ≤ 0.2. VSKH was tested, and the “one-hybrid fitness for binding parS DNA” value was ≤ 0.2. In the case of VRGM, the “one-hybrid fitness for binding parS DNA” value is reported as ≤ 0.2. SRPP was tested, and the “one-hybrid fitness for binding parS DNA” value was ≤ 0.2. In the case of PHNW, the “one-hybrid fitness for binding parS DNA” value is reported as ≤ 0.2. For QIDG, the “one-hybrid fitness for binding parS DNA” value was ≤ 0.2. RIMY was tested, and the “one-hybrid fitness for binding parS DNA” value was 0.483. With MVCD the “one-hybrid fitness for binding parS DNA” value was ≤ 0.2. With DLQE the “one-hybrid fitness for binding parS DNA” value was ≤ 0.2. With RSMC the “one-hybrid fitness for binding parS DNA” value was 0.928. In the case of TTRL, the “one-hybrid fitness for binding parS DNA” value is reported as ≤ 0.2. With INVS the “one-hybrid fitness for binding parS DNA” value was ≤ 0.2. In the case of AGWG, the “one-hybrid fitness for binding parS DNA” value is reported as ≤ 0.2. In the case of QKMQ, the “one-hybrid fitness for binding parS DNA” value is reported as ≤ 0.2. KSER was tested, and the “one-hybrid fitness for binding parS DNA” value was ≤ 0.2. With DVRG the “one-hybrid fitness for binding parS DNA” value was ≤ 0.2. With AGCR the “one-hybrid fitness for binding parS DNA” value was ≤ 0.2. For MDSG, the “one-hybrid fitness for binding parS DNA” value was ≤ 0.2. For PMTA, the “one-hybrid fitness for binding parS DNA” value was ≤ 0.2. For AYTN, the “one-hybrid fitness for binding parS DNA” value was ≤ 0.2. With QKGC the “one-hybrid fitness for binding parS DNA” value was ≤ 0.2. In the case of ANAQ, the “one-hybrid fitness for binding parS DNA” value is reported as ≤ 0.2. In the case of LQNH, the “one-hybrid fitness for binding parS DNA” value is reported as ≤ 0.2. With PFWR the “one-hybrid fitness for binding parS DNA” value was ≤ 0.2. For TVTI, the “one-hybrid fitness for binding parS DNA” value was ≤ 0.2. For RMPV, the “one-hybrid fitness for binding parS DNA” value was ≤ 0.2. In the case of QINY, the “one-hybrid fitness for binding parS DNA” value is reported as ≤ 0.2. With PAHT the “one-hybrid fitness for binding parS DNA” value was ≤ 0.2. For GTCR, the “one-hybrid fitness for binding parS DNA” value was ≤ 0.2. For AHHE, the “one-hybrid fitness for binding parS DNA” value was ≤ 0.2. In the case of PCTW, the “one-hybrid fitness for binding parS DNA” value is reported as ≤ 0.2. For WPSR, the “one-hybrid fitness for binding parS DNA” value was ≤ 0.2. For QAKP, the “one-hybrid fitness for binding parS DNA” value was ≤ 0.2. PSCK was tested, and the “one-hybrid fitness for binding parS DNA” value was ≤ 0.2. In the case of LQAY, the “one-hybrid fitness for binding parS DNA” value is reported as ≤ 0.2. For PNFT, the “one-hybrid fitness for binding parS DNA” value was ≤ 0.2. For KLVR, the “one-hybrid fitness for binding parS DNA” value was ≤ 0.2. With CYGR the “one-hybrid fitness for binding parS DNA” value was ≤ 0.2. EMLQ was tested, and the “one-hybrid fitness for binding parS DNA” value was ≤ 0.2. For KCHV, the “one-hybrid fitness for binding parS DNA” value was ≤ 0.2. In the case of ACYM, the “one-hybrid fitness for binding parS DNA” value is reported as ≤ 0.2. In the case of WDLS, the “one-hybrid fitness for binding parS DNA” value is reported as ≤ 0.2. With RCYN the “one-hybrid fitness for binding parS DNA” value was 0.545. QLET was tested, and the “one-hybrid fitness for binding parS DNA” value was ≤ 0.2. In the case of GLLI, the “one-hybrid fitness for binding parS DNA” value is reported as ≤ 0.2. EHFR was tested, and the “one-hybrid fitness for binding parS DNA” value was ≤ 0.2. AQNR was tested, and the “one-hybrid fitness for binding parS DNA” value was ≤ 0.2. In the case of MRNG, the “one-hybrid fitness for binding parS DNA” value is reported as ≤ 0.2. HICG was tested, and the “one-hybrid fitness for binding parS DNA” value was ≤ 0.2. In the case of IVHG, the “one-hybrid fitness for binding parS DNA” value is reported as ≤ 0.2. In the case of CCAT, the “one-hybrid fitness for binding parS DNA” value is reported as ≤ 0.2. With DDHR the “one-hybrid fitness for binding parS DNA” value was ≤ 0.2. For EELT, the “one-hybrid fitness for binding parS DNA” value was ≤ 0.2. For VDYR, the “one-hybrid fitness for binding parS DNA” value was ≤ 0.2. For VMNN, the “one-hybrid fitness for binding parS DNA” value was ≤ 0.2. With TSAM the “one-hybrid fitness for binding parS DNA” value was ≤ 0.2. For DYAI, the “one-hybrid fitness for binding parS DNA” value was ≤ 0.2. For VVYP, the “one-hybrid fitness for binding parS DNA” value was ≤ 0.2. In the case of YCDS, the “one-hybrid fitness for binding parS DNA” value is reported as ≤ 0.2. With RQAF the “one-hybrid fitness for binding parS DNA” value was 0.25. RPPS was tested, and the “one-hybrid fitness for binding parS DNA” value was ≤ 0.2. SRKL was tested, and the “one-hybrid fitness for binding parS DNA” value was ≤ 0.2. For QQIM, the “one-hybrid fitness for binding parS DNA” value was ≤ 0.2. For NHCT, the “one-hybrid fitness for binding parS DNA” value was ≤ 0.2. SSQY was tested, and the “one-hybrid fitness for binding parS DNA” value was ≤ 0.2. With EKPC the “one-hybrid fitness for binding parS DNA” value was ≤ 0.2. In the case of WCSN, the “one-hybrid fitness for binding parS DNA” value is reported as ≤ 0.2. With CWPD the “one-hybrid fitness for binding parS DNA” value was ≤ 0.2. With HHLV the “one-hybrid fitness for binding parS DNA” value was ≤ 0.2. In the case of GGDC, the “one-hybrid fitness for binding parS DNA” value is reported as ≤ 0.2. In the case of QHHC, the “one-hybrid fitness for binding parS DNA” value is reported as ≤ 0.2. With GQLS the “one-hybrid fitness for binding parS DNA” value was ≤ 0.2. RFCG was tested, and the “one-hybrid fitness for binding parS DNA” value was 0.895.
